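A five-concentration, 48-hour dose response in 96-well plates underlies each endpoint, interpolated linearly between surrounding concentrations. GI50: concentration for 50% inhibition of growth.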 The source made the active and inactive calls. Rule as the data show it: active = GI50 up to about 1.1 µM and inactive = higher.

This test relates to NCI-H322M. The test can be described thus: inhibition of tumour cell growth, NCI panel, 48 h.
For the compound `COc1ccc(C(C)c2cc3c(cc2OC)OCO3)cc1` (stereo not drawn), the GI50 is active: 0.499 µM.

Regarding `O=C(O)CC1(CC(=O)O)Nc2ccccc2SC1=O`, the GI50 was inactive: > 100 µM.

Take `Cc1ccc(NC(=O)CC2SC(Nc3ccc(Cl)cc3)=NC2=O)cc1C` (stereo not drawn): the GI50 is inactive: 24 µM.

Turning to `Cc1cccc2oc3c(c(=O)c12)CC(O)C(C)(C)O3` (stereo not drawn), the GI50 is inactive: > 100 µM.

Turning to `CCOc1ccccc1NC(=O)C(=O)Cc1nc2ccccc2s1`, the GI50 is inactive: > 100 µM.

Take `OC(c1cc(-c2ccccc2)nc2c1ccc1ccccc12)C1CCCCN1` (stereo not drawn): the GI50 is inactive: 1.64 µM.

In the case of `Cc1nn(C(=O)Cc2ccccc2)c2c1C(c1ccc([N+](=O)[O-])cc1)SC(=N)N2` (stereo not drawn), the GI50 was inactive: > 100 µM.

For `Cc1ccccc1OCC(COC(=O)Nc1ccccc1)OC(=O)Nc1ccccc1` (stereo not drawn), the GI50 is inactive: > 100 µM.

Take `CC(C)(C)c1cc(COc2cc(COc3ccc(-c4c5c(nc6c4CCc4ccc(-c7c8ccccc8nc8ccccc78)cc4-6)-c4cc(-c6c7ccccc7nc7ccccc67)ccc4CC5)cc3)cc(OCc3cc(C(C)(C)C)cc(C(C)(C)C)c3)c2)cc(C(C)(C)C)c1`: the GI50 was inactive: > 100 µM.

For `C=C(C)C1CC[C@@](C)(O)[C@H](C#N)C1` (stereo partly drawn), the GI50 was inactive: > 100 µM.

Take `CSc1ccc(-c2cn3ccsc3n2)c(O)c1`: the GI50 was inactive: > 100 µM.

Consider `CC(C)/C=C1\CCC(CN2CCCC2)C1=O` (stereo not drawn), for which the GI50 was inactive: 23.2 µM.

Take `Cc1cc(-c2c(F)cc3c4nn([C@H]5CC[C@@H](N(C)C)CC5)c(=O)c-4cn(C4CC4)c3c2F)cc(C)n1`: the GI50 was inactive: 1.83 µM.

As for `O=C1CC(NC(=O)C(F)(F)F)c2c1csc2Br` (stereo not drawn), the GI50 is inactive: 6.58 µM.

As to `Cc1ccc(Sc2ccccc2C23OC(C)(C4C(=O)N(c5ccccc5)C(=O)C42)N(C)C3=O)cc1` (stereo not drawn), the GI50 is inactive: > 100 µM.

For the compound `COc1cc(-c2nc(SC)nc3c2CCc2ccccc2-3)cc(OC)c1OC`, the GI50 was inactive: > 100 µM.

Regarding `COc1ccc2c(c1)[n+]([O-])c(-c1ccc([N+](=O)[O-])cc1)c(N)[n+]2[O-]`, the GI50 was inactive: 61.8 µM.

Take `COc1cc(OC)nc(NC(=O)NS(=O)(=O)c2cccc3ncn(C)c(=O)c23)n1`: the GI50 is inactive: > 100 µM.

On to `O=C1CN(c2ccc(Cl)cc2)C(=O)CN1NCNN1CC(=O)N(c2ccc(Cl)cc2)CC1=O`, for which the GI50 was inactive: > 100 µM.

Consider `COc1cc(OC)c2c(=O)c(OC)c(-c3ccc4c(c3)OCO4)oc2c1OC`, for which the GI50 was inactive: > 100 µM.

For the compound `CS(=O)(=O)O[C@H]1CN2C[C@@H](O)[C@@H](O)[C@H]2[C@H]1CO.[B]`, the GI50 was inactive: > 100 µM.

As to `C/C(=C\COc1cc(O)c2c(c1)C(=O)c1cc(C)cc(O)c1C2=O)CCC1OC1(C)C` (stereo not drawn), the GI50 is inactive: > 100 µM.

For the compound `[O-][Cl+3]([O-])([O-])[O-].c1ccc(C[P+]2(c3ccccc3)CCCCC2)cc1`, the GI50 was inactive: > 100 µM.

Take `COc1nc(/C=N/NC(N)=S)nc(OC)n1`: the GI50 is inactive: 57.7 µM.

In the case of `CCOC(=O)C(=Cc1ccc(C(=O)OC)cc1)C(=O)OCC`, the GI50 is inactive: 8.34 µM.

`CN(CCc1ccc(Br)cc1)CCN1CCCCC1`: the GI50 was inactive: 81.5 µM.

As to `CCCO[C@@H]1[C@@H](OC(C)=O)[C@@H](OC(C)=O)C(C)(C)/C=C/[C@H](C)C(=O)[C@@]2(OC(C)=O)C[C@@](C)(OC(C)=O)[C@H](OC(C)=O)[C@@H]2[C@H]2OC(=O)CC[C@@]12OC(=O)c1ccccc1`, the GI50 was inactive: > 25 µM.

With `C=CC1(c2ccc(OC)cc2)OCCCO1`, the GI50 was inactive: > 100 µM.

Turning to `COc1ccc2c(c1)OCC1Cc3ccccc3OC21` (stereo not drawn), the GI50 is inactive: > 100 µM.

Turning to `CCC1CC(=O)N(SCC(N)C(=O)O)C1=O` (stereo not drawn), the GI50 was inactive: > 100 µM.

Turning to `O=C1C(C(c2ccc([N+](=O)[O-])cc2)N2CCOCC2)=C(O)C(c2ccccc2)N1c1ccccc1` (stereo not drawn), the GI50 was inactive: > 10 µM.

As to `O=C1NC(c2ccc3ccccc3c2)Nc2ccccc21` (stereo not drawn), the GI50 was inactive: 49.9 µM.

As for `CN1C(=O)C(=Cc2ccc(Br)cc2)C(=O)N(C)C1=O`, the GI50 is inactive: > 100 µM.

Turning to `Cc1ccc(Nc2nnc3n2S(=O)(=O)c2cc(C)c(Cl)cc2S3)cc1`, the GI50 is inactive: 5.4 µM.

For `Nc1nc(Nc2ccc(Cl)cc2)sc1C(=O)c1cc2ccccc2oc1=O`, the GI50 is inactive: 62.4 µM.

As for `CC(=O)NC1C(OCc2ccccc2)OC(CO)C(O)C1OC(C)C(=O)NC(C(=O)NC(CCC(=O)NCCCNc1ccc([N+](=O)[O-])c2[nH]c3ccccc3c(=O)c12)C(N)=O)C(C)C` (stereo not drawn), the GI50 was inactive: > 100 µM.

On to `CCOC(=O)[C@@H]1[C@@H]2NC(=O)N[C@@]1(C)Oc1ccccc12`, for which the GI50 is inactive: > 100 µM.

`CC(C)OC(=O)c1ccc(CCC2=CC(=O)C(Br)=CC2=O)cc1`: the GI50 is inactive: 27.9 µM.

`O=C1C(N2CCN(c3ccccn3)CC2)=C(Cl)C(=O)c2ncccc21`: the GI50 was inactive: > 10 µM.

Turning to `O=C(CCc1ccccc1CO)NCCc1ccccc1`, the GI50 was inactive: > 100 µM.

Consider `CC(=O)OC12CC[N+]3(C)CCCCC3C1=Nc1ccccc12` (stereo not drawn), for which the GI50 is inactive: > 100 µM.

As to `O=c1[nH][nH]c(=O)[nH]1`, the GI50 was inactive: > 100 µM.

With `CCCCCC1=C/C(=C\c2[nH]c(-c3ccc[nH]3)cc2OC)N=C1C`, the GI50 is active: 0.0201 µM.

For `CN/C(=N\N=C1/C(=O)Nc2ccccc21)SCC(=O)c1ccc(Br)cc1`, the GI50 is inactive: 13.5 µM.

For the compound `CCOP(=O)(OCC)/C(C#N)=C/c1ccc(-c2cc(C(F)(F)F)cc(C(F)(F)F)c2)o1`, the GI50 was inactive: 12.6 µM.

Take `O=C1[C@@H]2C[C@@H](O)CN2C(=O)c2ccccc2N1CCCO`: the GI50 is inactive: > 100 µM.

For the compound `Oc1cccc2ccc(Br)nc12`, the GI50 was inactive: > 100 µM.

With `COc1cc(CC(C)N)ccc1O` (stereo not drawn), the GI50 is inactive: > 100 µM.

As for `Clc1ccc(-n2nnc(C3=NCCN3)c2-c2ccccc2)cc1`, the GI50 is inactive: > 100 µM.

Consider `N#CCOc1ccc(/C=C/C(=O)c2ccc(Cl)cc2)cc1`, for which the GI50 was inactive: 83.4 µM.

Turning to `CCOC(=O)C1=C(C)N(Cc2ccc(Cl)cc2Cl)C2(O)C(OC)CC(=O)C3C(=O)N(c4ccccc4)C(=O)C132` (stereo not drawn), the GI50 is inactive: 8.73 µM.

Take `C#CC[C@]12CC(=O)CC[C@H]1CC(=O)C2`: the GI50 was inactive: > 100 µM.

As for `C[C@]12CC[C@H]3[C@@H](CC=C4C[C@@H](O)CC[C@@]43C)[C@@H]1C[C@H](N1CCOCC1)[C@@H]2O`, the GI50 is inactive: > 100 µM.

Turning to `NC(C(=O)O)c1cc(O)no1` (stereo not drawn), the GI50 was inactive: > 100 µM.

As for `O=C1Cc2c([nH]c3ccccc23)-c2cc(Br)ccc2N1`, the GI50 is inactive: > 100 µM.

On to `COc1cc2nc(Sc3c([N+](=O)[O-])ncn3C)[nH]c2cc1OC`, for which the GI50 is inactive: 50.8 µM.

For `C=Cc1ccc(C)[n+](C[Si](C)(C)O[Si](C)(C)C[n+]2cc(C=C)ccc2C)c1`, the GI50 is inactive: > 100 µM.

For `CCCCCCCCCCCCCCCCCC(=O)NCC(COP(=O)([O-])OCC[N+](C)(C)C)OCC` (stereo not drawn), the GI50 is inactive: 19.2 µM.

The record behind these values is ChEMBL document CHEMBL1201862, “PubChem BioAssay data set” (2004).
